This passage reports cell count results from the supplement of paper PMC4604168 (melanoma cell lines).

The other results are listed elsewhere or left out. Repeats are few or missing, and single values can be far off.
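Further: cells treated in 1,536-well plates, then fixed and DAPI-stained, with nuclei counted from automated high-throughput microscope images.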

The test system of this experiment is WM3619. As to the kind of experiment: cell count relative to DMSO control; melanoma cells; higher = more viable cells. Particulars: library dose: standard library concentration; 72 h.
The compound `N#CC[C@H](C1CCCC1)n1cc(-c2ncnc3[nH]ccc23)cn1` [ruxolitinib] + O=C(O)c1ccc(-c2c[nH]c3ncc(-c4ccccc4)cc23)cc1C1CCCC1 [GSK650394] (first compound 5 µM, partner dose 0.8 µM) showed a cell count of 83.3%.
In turn, `CC[C@]1(O)C[C@H]2CN(CCc3c([nH]c4ccccc34)[C@@](C(=O)OC)(c3cc4c(cc3OC)N(C=O)[C@H]3[C@@](O)(C(=O)OC)[C@H](OC(C)=O)[C@]5(CC)C=CCN6CC[C@]43[C@@H]65)C2)C1` [vincristine] + OCCn1cc(-c2cnc3nnn(Cc4ccc5ncccc5c4)c3n2)cn1 [PF04217903] (first compound 0.0005 µM, partner dose 5 µM) came in with a cell count of 96.2%.
Next, `Cc1cc(Nc2cc(N3CCN(C)CC3)nc(Sc3ccc(NC(=O)C4CC4)cc3)n2)n[nH]1` [Tozasertib] + CC1(C)NC(=O)N(c2ccc([N+](=O)[O-])c(C(F)(F)F)c2)C1=O [nilutamide] (first compound 0.03 µM, partner dose 5 µM): 75.7%.
For `Cc1cc(Nc2cc(N3CCN(C)CC3)nc(Sc3ccc(NC(=O)C4CC4)cc3)n2)n[nH]1` [Tozasertib] + NC(=O)Nc1cc(-c2cccc(F)c2)sc1C(=O)N[C@H]1CCCNC1 [AZD7762] (first compound 0.03 µM, partner dose 0.1 µM) the value was 14.9%.
Next, `Cc1cc(Nc2cc(N3CCN(C)CC3)nc(Sc3ccc(NC(=O)C4CC4)cc3)n2)n[nH]1` [Tozasertib] + CN(NC(=O)CC(=O)NN(C)C(=S)c1ccccc1)C(=S)c1ccccc1 [STA4783] (first compound 0.03 µM, partner dose 0.03 µM): 14.7%.
Regarding `Cc1cc(Nc2cc(N3CCN(C)CC3)nc(Sc3ccc(NC(=O)C4CC4)cc3)n2)n[nH]1` [Tozasertib] + C=CCn1c(=O)c2cnc(Nc3ccc(N4CCN(C)CC4)cc3)nc2n1-c1cccc(C(C)(C)O)n1 [MK1775] (first compound 0.03 µM, partner dose 0.1 µM), the cell count amounted to 62.2%.
In turn, `Cc1cc(Nc2cc(N3CCN(C)CC3)nc(Sc3ccc(NC(=O)C4CC4)cc3)n2)n[nH]1` [Tozasertib] + Cc1ccc(NC(=O)c2cccc(N(C)C)c2)cc1NC(=O)c1ccc(O)cc1 [ZM336372] (first compound 0.03 µM, partner dose 10 µM) yielded a cell count of 92.2%.
Next, `CC[C@]1(O)C[C@H]2CN(CCc3c([nH]c4ccccc34)[C@@](C(=O)OC)(c3cc4c(cc3OC)N(C=O)[C@H]3[C@@](O)(C(=O)OC)[C@H](OC(C)=O)[C@]5(CC)C=CCN6CC[C@]43[C@@H]65)C2)C1` [vincristine] + C[C@@H]1CCN(C(=O)CC#N)C[C@@H]1N(C)c1ncnc2[nH]ccc12 [CP690550] (first compound 0.0005 µM, partner dose 5 µM): 44.7%; `Cc1cc(Nc2cc(N3CCN(C)CC3)nc(Sc3ccc(NC(=O)C4CC4)cc3)n2)n[nH]1` [Tozasertib] + CC(C)(C)c1cnc(CSc2cnc(NC(=O)C3CCNCC3)s2)o1 [SNS-032] (first compound 0.03 µM, partner dose 0.05 µM): 60.1%; `CC[C@]1(O)C[C@H]2CN(CCc3c([nH]c4ccccc34)[C@@](C(=O)OC)(c3cc4c(cc3OC)N(C=O)[C@H]3[C@@](O)(C(=O)OC)[C@H](OC(C)=O)[C@]5(CC)C=CCN6CC[C@]43[C@@H]65)C2)C1` [vincristine] + C=CCn1c(=O)c2cnc(Nc3ccc(N4CCN(C)CC4)cc3)nc2n1-c1cccc(C(C)(C)O)n1 [MK1775] (first compound 0.0005 µM, partner dose 0.1 µM): 32.9%.
For `CC[C@]1(O)C[C@H]2CN(CCc3c([nH]c4ccccc34)[C@@](C(=O)OC)(c3cc4c(cc3OC)N(C=O)[C@H]3[C@@](O)(C(=O)OC)[C@H](OC(C)=O)[C@]5(CC)C=CCN6CC[C@]43[C@@H]65)C2)C1` [vincristine] + Cn1cncc1[C@@](N)(c1ccc(Cl)cc1)c1ccc2c(c1)c(-c1cccc(Cl)c1)cc(=O)n2C [tipifarnib] (first compound 0.0005 µM, partner dose 0.05 µM) the value was 41.2%; for `N#CC[C@H](C1CCCC1)n1cc(-c2ncnc3[nH]ccc23)cn1` [ruxolitinib] + NCC(=O)Nc1ccc(-n2nc(C(F)(F)F)cc2-c2ccc3c(ccc4ccccc43)c2)cc1 [OSU03012] (first compound 5 µM, partner dose 5 µM), 45.5%.
